The whole screen tested about 48,000 compounds, of which about 550 (1.1%) were called active. Roughly 4% stayed inconclusive and do not appear here. No stated cut-off is given here; in the data, active means potency below about 15 µM; inconclusive means mostly about 16 µM to 33 µM; inactive means weaker than that. This is one part of the list.
Potency means the concentration at half of the fitted maximal effect.

The target of this assay is Lysosomal acid glucosylceramidase (Homo sapiens) (UniProt P04062). In words: Glucocerebrosidase.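 Further: the screen sought inhibitors.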 To be noted: purified enzyme, resorufin glucoside fluorescence (screen aimed at inhibitors), 20 min; series mostly up to 77 µM. An outline of the steps: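 Wild-type enzyme at 0.2 nM final in 50mM citric acid/KH2PO4, 10mM sodium taurocholate, 0.01% tween-20, pH 5.9, with resorufin beta-D-glucopyranoside at 30 uM final. Compounds titrated, 20 min at RT, red fluorescence read; AC50 from titration.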
Sequence of UniProt P04062 (P04062 whole entry, looked up): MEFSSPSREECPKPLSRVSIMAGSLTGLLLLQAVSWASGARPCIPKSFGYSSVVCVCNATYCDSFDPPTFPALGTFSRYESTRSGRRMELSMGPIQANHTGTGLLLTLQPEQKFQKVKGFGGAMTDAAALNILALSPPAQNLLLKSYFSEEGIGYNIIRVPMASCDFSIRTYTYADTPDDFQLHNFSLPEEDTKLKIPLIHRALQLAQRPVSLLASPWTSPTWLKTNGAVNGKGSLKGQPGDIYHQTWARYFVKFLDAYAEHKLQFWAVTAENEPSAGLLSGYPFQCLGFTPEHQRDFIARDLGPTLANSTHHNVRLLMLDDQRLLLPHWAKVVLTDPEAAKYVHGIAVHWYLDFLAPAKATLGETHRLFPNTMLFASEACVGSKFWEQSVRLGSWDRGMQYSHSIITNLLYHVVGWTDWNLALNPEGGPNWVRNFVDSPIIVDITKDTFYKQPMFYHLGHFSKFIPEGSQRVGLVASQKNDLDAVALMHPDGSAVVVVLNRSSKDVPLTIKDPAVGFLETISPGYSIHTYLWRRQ
Regarding `COc1ccc(Cc2nnc(SCC(=O)N3CCc4ccccc4C3)o2)cc1`, the Potency was inactive: > 76.9 µM.
As to `CC1=CC(C)(C)N2C(=O)C3(N=C(N)NC(Nc4ccccc4)=N3)c3cc(C)cc1c32` (stereo not given), the Potency was inactive: > 76.9 µM.
In the case of `c1c2c(cc3sc(N4CCCCC4)nc13)OCO2`, the Potency was inactive: > 76.9 µM.
Regarding `Cc1ccc(Cn2c(SCc3cccnc3)nc3c2c(=O)n(C)c(=O)n3C)cc1`, the Potency was inactive: > 76.9 µM.
Consider `COc1nc(OC)nc(N2CCC(C(=O)NC3CCCCCC3)CC2)n1`, for which the Potency is inactive: > 76.9 µM.
For `COc1ccc(OC)c(C(=O)CSc2nnc(-c3cccnc3)n2C)c1` the value was inactive: > 76.9 µM.
Then `Cc1cc2c(c(=O)n1CCN(C)C)C(c1ccc(Br)cc1)C(C#N)=C(N)O2` (stereo not given), with “inactive”; and `O=C(c1ccc(Cn2c(=O)[nH]c3ccccc3c2=O)cc1)N1CCN(c2ccccc2)CC1`, with inactive: > 76.9 µM.
Regarding `CCOC(=O)N1CCN(C(=O)Cn2c(C)cc3ccccc3c2=O)CC1`, the Potency is inactive: > 76.9 µM.
Consider `CCc1c(O)nc(N2CCN(Cc3ccccc3)CC2)[nH]c1=O`, for which the Potency was inactive: > 76.9 µM.
On to `Cn1c(=O)n(CCc2ccccc2)c(=O)c2c1nc1n2CCCN1CCc1ccccc1`, for which the Potency is active: 8.99 µM.
With `C=CCOc1ccc(/C(O)=C2\C(=O)C(=O)N(CCCOC)C2c2ccncc2)cc1` (stereo not given), the Potency is inactive: > 76.9 µM.
`CC1(C)Oc2ccc(C(=O)NC3CCCC3)cc2N(CC(=O)NC2CCCCC2)C1=O`: the Potency was inactive: > 76.9 µM.
For `CC(=O)NCc1cccc(CNC(C)=O)n1`, the Potency is inactive: > 76.9 µM.
Take `COC(=O)c1[nH]c2ccccc2c1NC(=O)Oc1ccccc1`: the Potency was inactive: > 76.9 µM.
On to `O=C(c1ccc2ccccc2c1)N1CCN(c2ccc(O)cc2)CC1`, for which the Potency is inactive: > 76.9 µM.
`Cc1cccc2cc(CN(CC3CCCO3)C(=O)c3ccncc3)c(=O)[nH]c12` (stereo not given): the Potency was inactive: > 76.9 µM.
For `COc1cccc(CN2CCCC(C(=O)N3CCCCC3)C2)c1OC` (stereo not given), the Potency is inactive: > 76.9 µM.
Then `Cc1cc(O)c(NC(=O)c2ccco2)cc1C`, with inactive: > 76.9 µM.
For `CCOc1ccc(C(=O)NCCN(C)C)cc1` the value was inactive: > 76.9 µM; for `O=C(CSc1nnc2ncccn12)N1CCCCCC1`, inactive: > 76.9 µM.
As for `CN(C)S(=O)(=O)c1cccc(COC(=O)C2=COCCO2)c1`, the Potency was inactive: > 76.9 µM.
With `COCCN1C(=O)c2ccccc2C(C(=O)N2CCN(c3ccccn3)CC2)C1c1ccc(F)cc1` (stereo not given), the Potency was inactive: > 76.9 µM.
Turning to `Cc1nc(NC2=NCN(CC3CCCO3)CN2)nc2ccccc12` (stereo not given), the Potency is inactive: > 76.9 µM.
With `COc1ccccc1N1CC(O)=C(c2nc3ccccc3c(=O)[nH]2)C1=N`, the Potency result was “inactive”.
Then `Cc1cccc(NC(=O)CSc2nnc(-c3ccccc3)n2N)c1C`, with inactive: > 76.9 µM; and `CCN1CCN(c2c(Cl)cccc2NC(=O)c2ccco2)CC1`, with inactive: > 76.9 µM; and `COc1ccc(-c2noc(C3CCCN(S(=O)(=O)c4ccc(C)c(Cl)c4)C3)n2)cc1OC` (stereo not given), with inactive: > 76.9 µM.
With `COc1ccccc1N1CCN(Cc2nnnn2CCc2ccccc2)CC1`, the Potency was inactive: > 76.9 µM.
For `O=C1c2oc3ccc(Br)cc3c(=O)c2C(c2cccnc2)N1Cc1ccco1` (stereo not given) the value was inactive: > 76.9 µM.
Then `COc1cc(NC(=O)c2ccco2)c(OC)cc1NC(=O)Nc1ccc(Cl)cc1`, with inactive: > 76.9 µM; and `O=C(CSc1nc2c(cnn2-c2ccc(F)cc2)c(=O)[nH]1)N1CCOCC1`, with inactive: > 76.9 µM; and `C=CCOc1ccc(/C(O)=C2\C(=O)C(=O)N(CCOC)C2c2cccnc2)cc1` (stereo not given), with inactive: > 76.9 µM.
With `Nc1nc(-c2cccnc2)nn1C(=O)COc1ccccc1`, the Potency is inactive: > 76.9 µM.
Take `O=C(CSc1nnc(-c2ccc(Br)cc2)o1)N1CCN(C(=O)c2ccco2)CC1`: the Potency is inactive: > 76.9 µM.
In the case of `CCOC(=O)N1CCN(Cc2nc3c(c(=O)n(C)c(=O)n3C)n2Cc2ccccc2C)CC1`, the Potency was inactive: > 76.9 µM.
On to `Cc1noc(C)c1CSc1nnc2sc3ccccc3n12`, for which the Potency was inactive: > 76.9 µM.
For `CCOc1ccc2[nH]c(=O)c(CN(Cc3ccco3)C(=O)c3cccc(F)c3)cc2c1` the value was “inactive”; for `CC1(C)CN=C(N2CCN(C3=NCC(C)(C)S3)CC2)S1`, inactive: > 76.9 µM; for `Cc1cc2nnc(SC(C)C#N)n2c2ccccc12` (stereo not given), inactive: > 76.9 µM.
For `COC(=O)[C@@H](NC(=O)NCc1cccc(OC)c1)C(C)C` the value was inactive: > 76.9 µM.
Turning to `Cc1onc(-c2ccccc2)c1C(=O)Nc1ccncc1`, the Potency was inactive: > 76.9 µM.
Take `CCOC(=O)Cc1csc(NC(=O)CN2C(=O)c3ccccc3S2(=O)=O)n1`: the Potency is inactive: > 76.9 µM.
Then `CS(=O)(=O)NC1c2cccc3cccc(c23)C1N1CCOCC1` (stereo not given), with inactive: > 76.9 µM; and `Cc1ccc(-c2nnn(Cc3nc(N)nc(N4CCOCC4)n3)n2)cc1`, with inactive: > 76.9 µM; and `COC(=O)c1ccc(OC(=O)c2ccco2)cc1`, with inactive: > 76.9 µM.
Regarding `O=C(CSc1nc2cc(S(=O)(=O)N3CCOCC3)ccc2o1)NC1CCCc2ccccc21` (stereo not given), the Potency is inactive: > 76.9 µM.
As to `CCOC(=O)c1ccc(NC(=O)Cn2nnc(-c3ccccc3C)n2)cc1`, the Potency is inactive: > 76.9 µM.
Then `O=C(Cc1ccccc1)NC(NCCCN1CCOCC1)(C(F)(F)F)C(F)(F)F`, with inactive: > 76.9 µM; and `CNC(=O)CN(Cc1ccccc1)S(=O)(=O)c1ccccc1`, with inactive: > 76.9 µM; and `Cc1cc(C)n(CCc2nc3c4ccccc4n(CC(=O)Nc4ccc(Cl)cc4F)c(=O)n3n2)n1`, with inactive: > 76.9 µM.
For the compound `CCOC(=O)C1=C(N)OC2=C(C(=O)CC(C)(C)C2)C1c1ccoc1` (stereo not given), the Potency is inactive: > 76.9 µM.
As for `O=C(Nc1ccc(N2CCN(C(=O)c3ccccc3)CC2)cc1)c1ccc(Br)o1`, the Potency is inactive: > 76.9 µM.
`COC(=O)CN(c1ccc(OC)cc1)S(=O)(=O)c1c(C)noc1C`: the Potency is inactive: > 76.9 µM.
Then `CC1=CCC2C(=O)N(c3nc(C)cc(C)n3)C(=O)C2C1` (stereo not given), with inactive: > 76.9 µM.
Then `COc1ccc(OC)c(N2C(=O)CC(Cc3ccc(C)cc3)C2=O)c1` (stereo not given), with inactive: > 76.9 µM.
As for `COc1ccc(CNS(=O)(=O)c2ccc(OC)cc2)cc1`, the Potency is inactive: > 76.9 µM.
On to `CC(C)CN(CC(C)C)S(=O)(=O)N1CCC(C(=O)NC2CCCCCCC2)CC1`, for which the Potency was inactive: > 76.9 µM.
`Cc1cc(C(=O)CSc2nnc(-c3ccccc3F)o2)c(C)n1Cc1cccs1`: the Potency is inactive: > 76.9 µM.
As to `Cn1c(=O)oc2cc(S(=O)(=O)N3CCN(C(=O)c4ccco4)CC3)ccc21`, the Potency was inactive: > 76.9 µM.
Turning to `Cc1nc2ccc(S(=O)(=O)N(C)CC(=O)N3CCc4ccccc43)cc2s1`, the Potency was inactive: > 76.9 µM.
For `CC1CN(C(=O)c2cccs2)CCN1C(=O)c1cccs1` (stereo not given) the value was inactive: > 76.9 µM; for `COCC(=O)N(Cc1ccco1)c1nnc(C2CCOC2)s1` (stereo not given), inactive: > 76.9 µM.
Then `CN(C)C(=O)CN(C)S(=O)(=O)c1ccc(Cl)cc1`, with inactive: > 76.9 µM; and `CC1(C)CC(=O)C2=C(C1)OC(c1ccncc1)C(C#N)=C2N` (stereo not given), with inactive: > 76.9 µM; and `O=C(c1cc2ccccn2n1)N1CCN(c2cccc(C(F)(F)F)c2)CC1`, with inactive: > 76.9 µM.
As to `NC(=O)c1ccccc1OCC(=O)NS(=O)(=O)c1ccccc1`, the Potency was inactive: > 76.9 µM.
As to `COc1ccc2nc(SCC(N)=O)[nH]c2c1`, the Potency is inactive: > 76.9 µM.
For `Cc1ccc2nc(NCCO)nc(-c3ccccc3)c2c1`, the Potency was inactive: > 76.9 µM.
As to `O=C(CCCN1C(=O)CCC1=O)Nc1ccc(Cl)c(C(F)(F)F)c1`, the Potency was inactive: > 76.9 µM.
For `O=C1CC(C(=O)Nc2ccccc2)N=C(N2CCCCC2)N1` (stereo not given) the value was inactive: > 76.9 µM.
As for `CC(=O)c1cc(F)c(N2CCN(C(=O)Cc3ccccc3)CC2)cc1C`, the Potency is inactive: > 76.9 µM.
As for `CN(C)CCCN1C(=O)C(=O)/C(=C(/O)c2ccncc2)C1c1cccc(Br)c1` (stereo not given), the Potency was inactive: > 76.9 µM.
Regarding `Clc1ccc(Br)cc1-c1nc(-c2ccncc2)no1`, the Potency was inactive: > 76.9 µM.
For the compound `Cc1cc(=O)oc(C)c1C(=O)NCc1ccc(F)cc1`, the Potency is inactive: > 76.9 µM.
Then `NS(=O)(=O)c1ccc(NCc2c(F)cccc2Cl)cc1`, with inactive: > 76.9 µM.
Then `CCOc1ccccc1NC(=O)NC1CC2CCCC(C1)N2Cc1nnnn1CCc1ccccc1` (stereo not given), with inactive: > 76.9 µM; and `CCCN(CCC)c1nc2ccccc2nc1C(C#N)C(=O)OCCOC` (stereo not given), with inactive: > 76.9 µM; and `CC1(C)NC(=O)N(CC(O)COc2ccc(-c3ccccc3)cc2)C1=O` (stereo not given), with inactive: > 76.9 µM.
Then `Cc1ccc2nsnc2c1S(=O)(=O)N1CCCC1`, with inactive: > 76.9 µM.
In the case of `Cc1cnc(NC(=O)c2ccco2)s1`, the Potency is inactive: > 76.9 µM.
Then `CCOc1ccc(Cc2nn[nH]n2)cc1`, with inactive: > 76.9 µM; and `Cc1ccc2nc(SCCC#N)nc(C)c2c1`, with inactive: > 76.9 µM.
As to `O=C(COc1ncnc2sccc12)Nc1ccc2c(c1)OCCO2`, the Potency is inactive: > 76.9 µM.
For `CCOC(=O)c1ccc2c(c1)N(Cc1ccccc1C)C(=O)c1ccccc1S2=O` (stereo not given), the Potency was inactive: > 76.9 µM.
As for `COc1ccc2[nH]c(C(=O)O)c(CCC(=O)O)c2c1`, the Potency is inactive: > 76.9 µM.
On to `O=C1COc2ccc(C(=O)COC(=O)C3CCN(S(=O)(=O)c4cccs4)CC3)cc2N1`, for which the Potency was inactive: > 76.9 µM.
Take `COc1ccc2[nH]c(=O)c(CN(C(=O)COc3ccccc3)C(C)C)cc2c1`: the Potency was inactive: > 76.9 µM.
Then `O=C(CN1CCOc2ccccc21)NCc1cccs1`, with inactive: > 76.9 µM; and `COc1ccc(Cl)cc1NC(=O)CN1C(=O)CCS(=O)(=O)c2ccccc21`, with inactive: > 76.9 µM.

These data come from PubChem BioAssay AID360 (National Center for Advancing Translational Sciences (NCATS), 2006).
